Measured values as given in PubChem BioAssay AID504706 (National Center for Advancing Translational Sciences (NCATS), 2011).
The campaign covered roughly 320,000 compounds. About 200 (0.062%) were called active. The shares of active, inactive and inconclusive entries below differ from those in the screen. The call rests on the fitted dose curve; in most records, active means well fitted activation curve with a large enough effect; inconclusive means small, poorly fitted or top-dose-only effect; inactive means no such curve, though single readings can be large or run the other way. Potencies of inconclusive entries are left out as doubtful fits.

assay: qHTS assay for re-activators of p53 using a Luc reporter; details: H1299 p53-A138V BP100-luciferase reporter, luminescence, 24 h; series mostly up to 92.2 µM; activity change, positive = activation: at the top concentration; further: nearly all actives have a fitted effect of over 45% in size; on activity change, positive = activation: % of control where 0% means no effect
Outline: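 H1299 (p53-null), stable ts p53-A138V + BP100-Luc; 1000 cells/well, Opti-MEM/10% FBS; cpd 4 pt, 1:5; 24 h, 37 deg C, 5% CO2; detection reagent 10 min RT; luminescence.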
Potency means the concentration at half of the fitted maximal effect; tags describe the fitted curve by direction and shape.

Structure (SMILES)	activity change, positive = activation	Potency
O=C(Nc1ccc2oc(-c3ccccc3)nc2c1)c1ccncc1	inactive: -1.9%	
O=C(Cn1c(=O)n(CC2CCCO2)c(=O)c2ccccc21)c1ccccc1 (stereo unspecified)		inconclusive [activator, partial curve, poor fit]
O=C(Nc1ccc(F)cc1)c1ccc2snnc2c1		inconclusive [activator, full curve, poor fit]
CN(/N=C/c1ccc([N+](=O)[O-])o1)c1ccccc1		inconclusive [activator, partial curve, poor fit]
CCOC(=O)COc1cccc2c(=O)n(CC(=O)NCCc3ccccc3)ccc12	inactive: 6.57%	
O=C(NN=C1C2CC3CC(C2)CC1C3)c1cccs1		inconclusive [activator, full curve, poor fit]
CC(C)(C)c1nnc(SCC(=O)Nc2ccc(N3CCCCC3)cc2)n1N		inconclusive [activator, full curve, poor fit]
Cc1cc(OCc2cn3cccnc3n2)ccc1Cl		inconclusive [activator, partial curve, poor fit]
Clc1ccc2[nH]c(-c3ccccc3)cc2c1		inconclusive [activator, partial curve, poor fit]
CSc1ccccc1-c1nnc(-c2ccccc2)o1		inconclusive [activator, full curve, poor fit]
CCC/C(=N/NC(=O)c1cccc(Cl)c1)c1ccccc1	inactive: 8.07%	
COc1ccccc1N(/N=C1\Sc2ccccc2C1=O)C(C)=O		inconclusive [activator, partial curve, poor fit]
Cc1ccsc1C(=O)OCC(=O)Nc1ccc(Cl)cn1		inconclusive [activator, single point]
CC(C)N1CCc2c(sc(NC(=S)NC(=O)c3ccccc3)c2C#N)C1		inconclusive [activator, partial curve, poor fit]
O=C(NCc1ccc(Cl)cc1)c1cc2c(nc3sccn32)s1		inconclusive [activator, single point]
c1ccc(-c2cn3c(n2)SCC3)cc1		inconclusive [activator, partial curve, poor fit]
CC1=NN(C(N)=S)C(=O)C1N=Nc1ccc(C)c(Br)c1 (stereo unspecified)		inconclusive [activator, full curve, poor fit]
CCc1ccccc1NC(=S)N(CCN(C)C)Cc1cccs1	inactive: 7.14%	
O=C(NC1CCCCCCC1)c1ccccc1O		inconclusive [activator, partial curve, poor fit]
CCC(C)NC(=O)Cn1c(COc2ccc(Cl)cc2Cl)nc2ccccc21 (stereo unspecified)		inconclusive [activator, full curve, poor fit]
Cc1c(Cl)cccc1NC(=S)N1CCN(Cc2ccc3c(c2)OCO3)CC1	inactive: -2.81%	
O=C(N/N=C/c1ccccn1)c1cccc(S(=O)(=O)Nc2ccccc2Cl)c1	inactive: -5%	
O=C(NNc1nc(=O)c2cccnc2s1)c1ccccc1O	inactive: -3.38%	
c1ccc(-n2nnc(-c3cccnc3)n2)cc1		inconclusive [activator, partial curve, poor fit]

Structure (SMILES)	activity change, positive = activation	Potency
CCOc1ccc(C(=O)NC(C(=O)N2CCC2)C(C)C)cc1 (stereo unspecified)	inactive: 9.56%	
Brc1c(CSc2nc3ccccc3o2)nc2ncccn12		inconclusive [activator, partial curve, poor fit]
CCCCCCCNC(=O)C1(CC2CC(c3ccccc3)=NO2)CCN(C(=O)OC(C)(C)C)CC1 (stereo unspecified)		inconclusive [activator, full curve]
Cn1cc(-c2nc3ccccc3[nH]2)c2ccccc21		inconclusive [activator, full curve]
Cn1c(CSc2ncccn2)nnc1SCC(=O)N1CCCCCC1	inactive: -0.988%	
Nc1ccc(-c2nc3ccc(N)cc3s2)cc1	inactive: -3.43%	
Cn1c(CN2CCCC2)nc2cc(NC(=O)c3ccco3)ccc21	inactive: 7.74%	
CCn1c(C)nc2cc(C(=O)OC(C(F)(F)C(F)F)C(F)(F)C(F)F)ccc21		inconclusive [activator, full curve, poor fit]
COCCN(CC1CCCN(C2Cc3ccccc3C2)C1)C(=O)c1cccs1 (stereo unspecified)		inconclusive [activator, partial curve, poor fit]
COc1cccc(C(=O)Nc2nc(C)cs2)c1		inconclusive [activator, full curve, poor fit]
COCC(=O)NC(C)c1nc2ccccc2[nH]1 (stereo unspecified)		inconclusive [activator, partial curve, poor fit]
Oc1ccccc1N1CCN(c2ccc3ccccc3n2)CC1		inconclusive [activator, partial curve, poor fit]
COc1ccc(Nc2cc(C(=O)NCc3ccco3)c3ccccc3n2)c(OC)c1	inactive: 1.59%	
CCCCCc1ccc(C2=NNC(=O)CC2)cc1		inconclusive [activator, partial curve, poor fit]
C=C(C)Cn1c(SCC(=O)O)nnc1-c1ccc(OC)cc1	inactive: -0.953%	
CC(C)c1ccc(C2/C(=C(/O)c3ccccc3)C(=O)C(=O)N2CCCN2CCOCC2)cc1 (stereo unspecified)		inconclusive [activator, single point]
Cc1ccc(NS(=O)(=O)c2ccc(C(=O)NCCN3CCOCC3)cc2)cc1	inactive: 3.18%	
CC1CCN(C(=S)NCCc2ccccc2)CC1		inconclusive [activator, partial curve, poor fit]
Cc1nn(-c2ccccc2)c(N)c1N=Nc1ccc(Cl)cc1		inconclusive [activator, partial curve, poor fit]
CCc1ccc(C(=O)/C=C/c2ccc([N+](=O)[O-])o2)cc1	inactive: -14.8%	
Cc1ccc(NC(=O)C2COc3ccccc3O2)cc1C (stereo unspecified)		inconclusive [activator, partial curve, poor fit]
Cc1cc(C(=O)CSc2nc3ccccc3o2)c(C)n1CC1CCCO1 (stereo unspecified)		inconclusive [activator, partial curve, poor fit]
COc1cc(/C=N/NC(=S)NCc2ccccc2)ccc1OCC#N	inactive: -9.76%	
COc1cccc(NC(=S)N(CCCN2CCCC2)Cc2ccco2)c1		inconclusive [activator, single point]

Structure (SMILES)	activity change, positive = activation	Potency
CCCc1nc(-c2ccc(-c3ccc(F)cc3)cc2)no1	inactive: 19.9%	
Cc1cc(C)n(-c2ccc(C(=O)OCc3ccccc3)cc2)n1		inconclusive [activator, partial curve, poor fit]
ON=C1c2cc(OCCN3CCCCC3)ccc2-c2ccc(OCCN3CCCCC3)cc21		inconclusive [activator, partial curve, poor fit]
CCOCCCn1c(=S)[nH]c2cc(C(=O)N3CCN(C4CCCCC4)CC3)ccc2c1=O	inactive: 11.7%	
CCc1ccc(N(CC(=O)NCc2cccnc2)S(=O)(=O)c2ccccc2)cc1		inconclusive [activator, full curve]
Clc1ccc2oc(-c3cccnc3NCc3ccccc3)nc2c1	inactive: -2.28%	
O=C(CCC(=O)N1CCN(c2ccccn2)CC1)c1cccs1		inconclusive [activator, partial curve, poor fit]
COc1ccc(OCc2cc(C(=O)NCC3CCCCO3)no2)c(Cl)c1 (stereo unspecified)		inconclusive [activator, full curve, poor fit]
CC(C)Nc1nnc(SCC(=O)Nc2ccc3c(c2)C(=O)c2ccccc2C3=O)s1		inconclusive [activator, partial curve, poor fit]
CCC(C)c1ccc(NC(=S)N2CCCC2)cc1 (stereo unspecified)		inconclusive [activator, partial curve, poor fit]
N#CCSc1ccc2nc(-c3ccccc3)cn2n1		inconclusive [activator, partial curve]
CCOCCCNC(=S)N1CCN(c2nc(-c3ccc(F)cc3)cs2)CC1	inactive: -2.08%	
COC(=O)/C(=C/c1cccc([N+](=O)[O-])c1)NC(=O)c1ccc(OC)cc1		inconclusive [activator, single point]
COc1ccc(CN2CCCCCC2)cc1		inconclusive [activator, single point]
O=C1C[C@@H](c2ccc(O[C@@H]3O[C@H](CO)[C@@H](O)[C@H](O)[C@H]3O)cc2)Oc2cc(O)ccc21		inconclusive [activator, single point]
O=[N+]([O-])c1nn(-c2ccccc2)n(O)c1=NCCc1ccccc1		inconclusive [activator, partial curve, poor fit]
COc1ccc(OC)c(Nc2ncnc3sccc23)c1		inconclusive [activator, single point]
CCOC(=O)c1sc(C)c2c1NC1(CCCCC1)NC2=O	inactive: -22.4%	
Cc1cc(NC(c2ccc(Cl)cc2)c2ccc3cccnc3c2O)no1 (stereo unspecified)		inconclusive [activator, partial curve, poor fit]
O=C(OCCc1ccccc1)c1cc(O)c(O)c(O)c1		inconclusive [activator, full curve, poor fit]
CCCSc1nnc(NC(=O)c2ccco2)s1	inactive: 19.9%	
O=c1cc(/C=C/c2cccs2)[nH]c2ccccc12	inactive: 15%	
C[C@H](NS(=O)(=O)c1ccccc1)C(=O)OCC(=O)NC(=O)Nc1ccc2c(c1)OCCO2		inconclusive [activator, partial curve, poor fit]
